Measured values from a collection of fitness landscapes (doi:10.1038/s41467-024-54723-y).
Over roughly 18,000 sequences, “TetR repression strength (sort-seq, GFP reporter)” has its median near 0.23; the highest 2% begin near 0.68. Some of the results follow.

molecular target: TetR (class B, Tn10) (UniProt P04483); assay: TetR repression strength (sort-seq, GFP reporter) (relative to tetO2 = 1); higher = stronger repression; details: E. coli
How it was run: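 Repression strength was calculated by subtracting the read-weighted mean bin from the top bin index plus one and dividing by the unaltered operator's value. The plasmid library was low-copy in E. coli SIG10-MAX, with eight randomized operator positions between a constitutive promoter and sfGFP and constitutive TetR. Cultures grew 5 h at 37 °C in LB containing 50 µg/mL chloramphenicol before 10^6 cells were sorted by FACS into 13 fluorescence bins, each sequenced on Illumina. Three independent transformations were averaged for members having ≥30 reads in all replicates and a CV ≤0.5.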

Chain of UniProt P04483 (P04483 whole entry): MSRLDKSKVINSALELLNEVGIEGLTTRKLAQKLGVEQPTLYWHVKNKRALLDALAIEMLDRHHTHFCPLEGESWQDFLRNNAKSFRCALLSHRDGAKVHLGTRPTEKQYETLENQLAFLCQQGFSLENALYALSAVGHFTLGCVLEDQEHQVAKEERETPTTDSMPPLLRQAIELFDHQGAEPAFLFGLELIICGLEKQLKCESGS

Point of comparison: TCCCATTAAGTCTTAGAGA, TetR repression strength 0.294. Against it:
- TCCCAGCGAGTCGTGGAGA — lower, 0.183
- TCCCATATAGTGGTAGAGA — lower, 0.236
- TCCCGTAGAGTAGTGGAGA — lower, 0.0489
- TCCCGGTGAGTTGACGAGA — higher, 0.318
- TCCCGTCAAGTGTTAGAGA — lower, 0.291
- TCCCTTCTAGTGCCCGAGA — higher, 0.546
- TCCCATATAGTGGTCGAGA — lower, 0.159
- TCCCGGGCAGTAACCGAGA — higher, 0.373
- TCCCTTATAGTTTTAGAGA — lower, 0.27
- TCCCTGAAAGTTGCGGAGA — lower, 0.171
- TCCCTCTCAGTTGATGAGA — higher, 0.736
- TCCCGGAAAGTGGGGGAGA — lower, 0.148
- TCCCCGGGAGTGCTGGAGA — lower, 0.14
- TCCCAGACAGTGGAGGAGA — lower, 0.129
- TCCCCGTAAGTGTTCGAGA — higher, 0.473
- TCCCATCCAGTGTTGGAGA — lower, 0.222
- TCCCAAGTAGTGGTCGAGA — lower, 0.173
- TCCCTGAGAGTCTGGGAGA — lower, 0.226
- TCCCTCGGAGTCGCCGAGA — lower, 0.292
- TCCCGGCGAGTATGAGAGA — lower, 0.226
- TCCCTGGAAGTGTCAGAGA — lower, 0.215
- TCCCGCAAAGTACGTGAGA — lower, 0.00212
- TCCCGACCAGTTTGGGAGA — lower, 0.109
- TCCCGTTTAGTGAAAGAGA — lower, 0.218
- TCCCCCTTAGTTAGGGAGA — higher, 0.299
- TCCCAGGGAGTTTGGGAGA — lower, 0.171
- TCCCGCCTAGTGGGAGAGA — lower, 0.268
- TCCCAGAAAGTCTAAGAGA — lower, 0.144
- TCCCTATGAGTTAATGAGA — lower, 0.127
- TCCCGGCAAGTCCGAGAGA — higher, 0.513
- TCCCTTATAGTTTAGGAGA — lower, 0.119
- TCCCTGTGAGTGCAAGAGA — higher, 0.47
- TCCCAAGCAGTGAAAGAGA — higher, 0.367
- TCCCGCAGAGTGTATGAGA — lower, 0.201
- TCCCGGTCAGTCTTAGAGA — higher, 0.463
- TCCCAGGGAGTCATCGAGA — higher, 0.555
- TCCCCTCGAGTATGGGAGA — lower, 0.133
- TCCCCGAAAGTTAACGAGA — lower, 0.152
- TCCCCTGAAGTCGCGGAGA — lower, 0.13
- TCCCTTGAAGTGTCAGAGA — lower, 0.214
- TCCCAGACAGTTGGTGAGA — higher, 0.387
- TCCCTTGCAGTACGAGAGA — lower, 0.138
- TCCCCTCAAGTAGCTGAGA — lower, 0.207
- TCCCATTAAGTGCGGGAGA — lower, 0.124
- TCCCGGGGAGTTAGGGAGA — higher, 0.346
- TCCCGGAAAGTTGGCGAGA — higher, 0.383
- TCCCTTGGAGTTCTGGAGA — higher, 0.569
- TCCCCTGTAGTGATGGAGA — lower, 0.232
- TCCCTTTTAGTTGTTGAGA — lower, 0.273
- TCCCAGGGAGTGAACGAGA — higher, 0.604
- TCCCCTCGAGTGCGTGAGA — higher, 0.301
- TCCCTCATAGTGGCAGAGA — higher, 0.448
- TCCCCGGAAGTGGGCGAGA — lower, 0.173
- TCCCCTAGAGTAGGGGAGA — lower, 0.191
- TCCCGGCAAGTACTAGAGA — lower, 0.268
- TCCCCGGAAGTCCGGGAGA — higher, 0.352
- TCCCCTAGAGTATGAGAGA — higher, 0.537
- TCCCTCAGAGTCACCGAGA — higher, 0.412
- TCCCAGTTAGTGGACGAGA — lower, 0.218
- TCCCTGTGAGTTTGTGAGA — higher, 0.366
- TCCCCTGAAGTAGGGGAGA — higher, 0.317
- TCCCGGTGAGTGATAGAGA — higher, 0.428
- TCCCATGAAGTGTCTGAGA — lower, 0.178
- TCCCAATCAGTGCAGGAGA — lower, 0.164
- TCCCTGAGAGTGGCTGAGA — lower, 0.271
- TCCCATTCAGTAGGCGAGA — higher, 0.295
- TCCCGTGAAGTGGAAGAGA — higher, 0.321
- TCCCAGCCAGTAACTGAGA — higher, 0.37
- TCCCGAACAGTAGTTGAGA — lower, 0.242
- TCCCGACAAGTGTTAGAGA — lower, 0.0117
- TCCCGGAGAGTCGGCGAGA — lower, 0.14
- TCCCACTTAGTTTTTGAGA — lower, 0.256
- TCCCGACTAGTCGGAGAGA — lower, 0.264
- TCCCTTTTAGTCGCAGAGA — higher, 0.329
- TCCCGTCAAGTTGCGGAGA — lower, 0.23
- TCCCTGGAAGTTCTAGAGA — lower, 0.223
- TCCCGCGCAGTTAGAGAGA — lower, 0.24
- TCCCCTCGAGTGTCTGAGA — lower, 0.168
- TCCCTTATAGTTATAGAGA — higher, 0.312
- TCCCGAGGAGTGAGAGAGA — higher, 0.322
- TCCCCATTAGTCCTAGAGA — higher, 0.301
- TCCCCCGCAGTGGTTGAGA — lower, 0.211
- TCCCTGTAAGTGTTCGAGA — lower, 0.273
- TCCCACCAAGTCCGGGAGA — lower, 0.203
- TCCCGGGCAGTTCTTGAGA — lower, 0.0775
- TCCCGGAGAGTTTAAGAGA — lower, 0.145
- TCCCGATCAGTATGAGAGA — lower, 0.185
- TCCCTCTAAGTCCAGGAGA — lower, 0.267
- TCCCTTACAGTTGGGGAGA — higher, 0.299
- TCCCGATAAGTGGTGGAGA — higher, 0.315
- TCCCCTCGAGTTGTTGAGA — higher, 0.315
- TCCCGTTTAGTCGAAGAGA — lower, 0.15
- TCCCGAATAGTAAGTGAGA — lower, 0.104
- TCCCGGAGAGTTTGAGAGA — lower, 0.126
- TCCCCCAGAGTTGCCGAGA — higher, 0.415
- TCCCTTGCAGTACATGAGA — higher, 0.298
- TCCCCTCGAGTTTGCGAGA — higher, 0.307
- TCCCTTCAAGTGCCCGAGA — higher, 0.415
- TCCCCTAGAGTGGACGAGA — lower, 0.127
- TCCCTAATAGTGACTGAGA — higher, 0.314
- TCCCAGATAGTCCGTGAGA — lower, 0.156
- TCCCTAGCAGTTCTAGAGA — higher, 0.515
- TCCCGCCGAGTACCTGAGA — lower, 0.183
- TCCCACCGAGTGAGAGAGA — higher, 0.43
- TCCCAAATAGTTGGTGAGA — higher, 0.314
- TCCCTGTAAGTCGATGAGA — lower, 0.133
- TCCCGGTCAGTAGAAGAGA — lower, 0.226
- TCCCAAGAAGTGGGTGAGA — lower, 0.151
- TCCCTATCAGTCCTCGAGA — higher, 0.747
- TCCCGCGTAGTCGACGAGA — higher, 0.302
- TCCCGGCGAGTTTAGGAGA — higher, 0.328
- TCCCTATCAGTCACCGAGA — higher, 0.789
- TCCCGTCGAGTCAGGGAGA — higher, 0.367
- TCCCATCCAGTTGTGGAGA — higher, 0.318
- TCCCCCGAAGTAGCAGAGA — higher, 0.346
- TCCCATCAAGTGCAAGAGA — higher, 0.315
- TCCCTGTAAGTGTATGAGA — higher, 0.31
- TCCCGATGAGTGGAGGAGA — higher, 0.383
- TCCCATCGAGTGTGTGAGA — lower, 0.185
- TCCCTGACAGTGTGTGAGA — higher, 0.311
- TCCCGTGTAGTCTTAGAGA — higher, 0.304
- TCCCGGGTAGTAAATGAGA — lower, 0.265
- TCCCGGGGAGTCTTGGAGA — lower, 0.243
- TCCCTAAGAGTCCCAGAGA — lower, 0.214
- TCCCCAGGAGTGAACGAGA — higher, 0.401
- TCCCGTAGAGTGTGCGAGA — lower, 0.256
- TCCCCGGGAGTGGAGGAGA — lower, 0.175
- TCCCAGGGAGTCGTCGAGA — lower, 0.188
- TCCCGTCAAGTGGGTGAGA — lower, 0.222
- TCCCATGAAGTGCGTGAGA — lower, 0.176
- TCCCTTTAAGTGATGGAGA — higher, 0.363
- TCCCACAAAGTGGTCGAGA — the same, 0.294
- TCCCTTAGAGTAGGTGAGA — lower, 0.144
- TCCCCGTGAGTCCAGGAGA — lower, 0.185
- TCCCAATCAGTAACTGAGA — lower, 0.278
- TCCCGTTAAGTTCTGGAGA — lower, 0.256
- TCCCGCATAGTCGAAGAGA — higher, 0.328
- TCCCGGGTAGTGGGCGAGA — lower, 0.24
- TCCCCCGTAGTGTGCGAGA — lower, 0.19
- TCCCGAGCAGTGCCGGAGA — higher, 0.317
- TCCCTGATAGTTAGGGAGA — lower, 0.233
- TCCCGTCTAGTATGTGAGA — higher, 0.45
- TCCCTTCGAGTTAGTGAGA — lower, 0.19
- TCCCGAGGAGTGCGAGAGA — higher, 0.438
- TCCCGGGTAGTTGGGGAGA — lower, 0.139
- TCCCACCCAGTTTAGGAGA — lower, 0.122
- TCCCGTTGAGTGGACGAGA — lower, 0.128
- TCCCGGAAAGTAGTGGAGA — lower, 0.122
- TCCCCAACAGTTGTTGAGA — higher, 0.452
- TCCCGGGAAGTGTCAGAGA — lower, 0.181
- TCCCATCAAGTGTGGGAGA — lower, 0.0444
- TCCCAAGGAGTATTGGAGA — lower, 0.284
- TCCCAGGAAGTGAATGAGA — lower, 0.104
- TCCCCTCGAGTGTGAGAGA — lower, 0.124
- TCCCGTAAAGTTTCTGAGA — lower, 0.187
- TCCCCAAGAGTAAACGAGA — lower, 0.291
- TCCCTATAAGTCATTGAGA — higher, 0.498
- TCCCAACTAGTGTAGGAGA — lower, 0.146
- TCCCGCTTAGTCGTTGAGA — lower, 0.0178
- TCCCATCGAGTAGGGGAGA — lower, 0.118
- TCCCCGAGAGTGCATGAGA — lower, 0.128
- TCCCTACTAGTAATGGAGA — higher, 0.415
- TCCCATTCAGTCCTGGAGA — lower, 0.207
- TCCCCTTAAGTTTATGAGA — higher, 0.311
- TCCCTGTGAGTGTTAGAGA — lower, 0.199
- TCCCGCACAGTGCGTGAGA — lower, 0.117
- TCCCTGGCAGTATGTGAGA — lower, 0.194
- TCCCAGCGAGTGACTGAGA — lower, 0.0946
- TCCCATGAAGTAGTTGAGA — lower, 0.0364
- TCCCGAGGAGTAGACGAGA — lower, 0.227
- TCCCGTACAGTTAAGGAGA — higher, 0.316
- TCCCTTGGAGTAGTAGAGA — higher, 0.559
- TCCCGGGTAGTCCTCGAGA — lower, 0.159
- TCCCAATAAGTATCAGAGA — lower, 0.0222
- TCCCCTGCAGTGAAGGAGA — lower, 0.2
- TCCCTTGTAGTTCGTGAGA — higher, 0.575
- TCCCTTATAGTACTTGAGA — lower, 0.13
- TCCCAAGGAGTGATGGAGA — lower, 0.125
- TCCCAAGTAGTGGAGGAGA — lower, 0.0694
- TCCCATGAAGTTGGGGAGA — lower, 0.261
- TCCCACTGAGTGGTTGAGA — lower, 0.0824
- TCCCAAGGAGTGGTAGAGA — higher, 1.18
- TCCCGGTGAGTGAGGGAGA — lower, 0.205
- TCCCCCATAGTCTGTGAGA — higher, 0.325
- TCCCGGTAAGTGTTCGAGA — lower, 0.139
- TCCCACGTAGTGGCCGAGA — higher, 0.407
- TCCCTCATAGTGGCGGAGA — lower, 0.231
- TCCCCTAGAGTATTAGAGA — lower, 0.207
- TCCCTAATAGTTGGGGAGA — lower, 0.246
- TCCCTATAAGTAGTTGAGA — higher, 0.567
- TCCCTGGGAGTGTGTGAGA — lower, 0.182
- TCCCGTACAGTGCATGAGA — lower, 0.179
- TCCCGTGAAGTGCCGGAGA — lower, 0.137
- TCCCGGCCAGTCCCGGAGA — lower, 0.17
- TCCCACTGAGTTACAGAGA — lower, 0.208
- TCCCTGCCAGTTTCTGAGA — higher, 0.415
- TCCCTTCAAGTACACGAGA — lower, 0.152
- TCCCCCGGAGTGACTGAGA — lower, 0.262
- TCCCGAGAAGTCCGAGAGA — higher, 0.474
- TCCCTACCAGTGGAAGAGA — higher, 1.24
- TCCCATCTAGTAGGTGAGA — lower, 0.195
- TCCCAAATAGTGGGTGAGA — lower, 0.183
- TCCCAATTAGTTAAGGAGA — higher, 0.518
